Our source for the survival values is PubChem BioAssay AID463173 (ICCB-Longwood Screening Facility, Harvard Medical School, 2010).

Among all 52,000 compounds or so, about 4,300 (8.3%) were called active. Rule as the data show it: active = survival mostly below about 52% (no sharp cut-off); inactive = mostly above about 56%. The list shows a part of the results.

For this test, the system named is DeltatarO mutant. Nature of the test: growth inhibition of S. aureus wild type versus tarO mutant, primary screen, teichoic acid synthesis inhibitors, RN4220, OD600 (AID 463173). Particulars: OD600, 18 h, active compounds read low, screened at 18.75 µg/mL (by protocol).
On to `O=C(Nc1ccc(N2CCC(N3CCCCC3)CC2)c(C(=O)O)c1)c1ccc(Br)cc1`, for which the survival was inactive: 101%.

As for `CCOc1cc(C2C(C(=O)OC)=C(C)NC3=C2C(=O)c2ccccc23)ccc1O` (stereo not drawn), the survival is active: 31%.

`COc1ccc(CNC(=O)CCn2nc(C)c3c(C)n(-c4ccccc4)nc3c2=O)cc1OC`: the survival was active: 0%.

With `CCOC(=O)CSc1nnc(CNc2ccc(F)cc2)o1`, the survival is inactive: 73%.

For the molecule `Cc1ccc(NC(=O)CCCn2nc(C)c3c(C)n(-c4ccccc4)nc3c2=O)cc1Cl`, the survival is inactive: 80%.

Take `O=C(CN1CCN(c2ccc(Cl)cc2)CC1)Nc1ccc(F)cc1F`: the survival was inactive: 85%.

Regarding `Cc1ccc(NC(=O)c2sc3ccccc3c2Cl)cc1`, the survival was inactive: 66%.

Regarding `Cc1ccc(CN2C(=O)c3ccccc3C2C(=O)NC2CCCCCC2)cc1` (stereo not drawn), the survival is inactive: 48%.

Turning to `Cc1cc(Nc2cccc(C(F)(F)F)c2)nc2ccc(NC(=O)c3ccc(N(C)C)cc3)cc12`, the survival is inactive: 55%.

With `CCc1ccc(-n2nc(C)c3c(C(=O)Nc4cccc(C(F)(F)F)c4)cc(C)nc32)cc1`, the survival is active: 20%.

For `O=C(Nc1cccc(C(=O)N2CCCCC2)c1)c1nsc2ccccc12`, the survival was inactive: 65%.

Consider `CCOc1ccccc1NC(=O)c1c(C)cc(C)nc1SCC(=O)c1cccc(OC)c1`, for which the survival is active: 40%.

Turning to `Cc1ccc(NC(=O)c2c(Nc3ccccc3C)sc(C(=O)c3ccccc3)c2N)cc1`, the survival is inactive: 89%.

For `CC(=O)N1CCCc2cc(S(=O)(=O)N(C)CC(=O)Nc3ccc(F)cc3Cl)ccc21`, the survival was inactive: 75%.

`CCc1nn(CC(=O)NC(C)C)c(=O)c2cc3cc(F)ccc3n12`: the survival is inactive: 84%.

Regarding `CCOC(=O)CC1CN(C)CCN1C` (stereo not drawn), the survival is inactive: 80%.

For the molecule `CCOc1ccc(N(CC(=O)Nc2ccc(F)cc2F)S(=O)(=O)c2c(C)[nH]c(=O)[nH]c2=O)cc1`, the survival is inactive: 72%.

For the molecule `CN1C(=O)c2ccccc2Sc2ccc(NC(=O)Nc3ccccc3F)cc21`, the survival is inactive: 115%.

Turning to `COc1ccc(CNC(=O)C(=O)NCC(c2cccs2)S(=O)(=O)c2ccc(F)cc2)cc1` (stereo not drawn), the survival is inactive: 85%.

For `COc1ccc(CN(CCC(c2ccc3c(c2)OCO3)c2ccccc2OC)C(C)=O)cc1` (stereo not drawn), the survival was active: 19%.

Turning to `CCOCCCn1c(=N)c(S(=O)(=O)c2ccc(C)cc2)cc2c(=O)n3cccc(C)c3nc21`, the survival was inactive: 61%.

For the molecule `Cc1ccc(C)c(N2CCN(c3nc4ccccc4c4nc(CCn5nc(C)cc5C)nn34)CC2)c1`, the survival is inactive: 84%.

With `O=C(CSc1nc(-c2ccc(Cl)cc2)nc2c1Cc1ccccc1O2)N1CCCCC1`, the survival is inactive: 96%.

In the case of `Cc1ccc(N2C(=O)CS(=O)(=O)C23C(=O)N(Cc2cccc(F)c2)c2ccccc23)cc1Cl` (stereo not drawn), the survival is inactive: 54%.

In the case of `COc1ccc(Cl)cc1NC(=O)c1cc2nc(-c3ccc4c(c3)OCO4)cc(C(F)(F)F)n2n1`, the survival is inactive: 86%.

Take `O=C(CN1C(=O)CSC1=O)c1ccccc1`: the survival was inactive: 88%.

Consider `COc1cccc(OC(=O)CSc2nnc(-c3ccccc3OC)o2)c1`, for which the survival is inactive: 62%.

For `O=c1cc(CN2CCN(S(=O)(=O)c3ccc(Cl)cc3)CC2)nc2sc(-c3ccccc3F)nn12`, the survival was inactive: 104%.

As for `O=S(=O)(NCCc1ccccc1)c1ccc(N2CCCCS2(=O)=O)cc1`, the survival was active: 52%.

`CCOc1ccc(NS(=O)(=O)c2ccc3[nH]cc(C(=O)NCc4ccco4)c(=O)c3c2)cc1`: the survival is inactive: 68%.

For the molecule `COc1ccc(NC(=O)CCCc2nc(-c3ccco3)no2)c(OC)c1`, the survival is inactive: 107%.

In the case of `COc1ccc2nc3sc(C(=O)Nc4ccccc4F)cc3cc2c1`, the survival is inactive: 106%.

Take `CCN(CC)S(=O)(=O)c1ccc(NC(=O)[C@H](CSCc2ccccc2)N2Cc3ccccc3C2=O)cc1`: the survival is inactive: 103%.

Turning to `COCCN(C(=O)C1CC1)c1nnc(-c2cc(OC)c(OC)c(OC)c2)s1`, the survival was inactive: 91%.

`COC(=O)Cn1c(=O)c2c(nc3n2CCN3c2cccc(C)c2)n(C)c1=O`: the survival is inactive: 73%.

Take `CCCCc1ccc(NC(=O)c2cc3c(=O)n4ccccc4nc3n2C)cc1`: the survival was inactive: 65%.

Regarding `CCOC(=O)C1CCN(C(c2ccccc2)c2c(O)cc(C)n(Cc3ccco3)c2=O)CC1` (stereo not drawn), the survival is inactive: 67%.

`COc1ccc(OCC(=O)Nc2nnc(S(=O)(=O)N3CCCCCC3)s2)cc1`: the survival was inactive: 76%.

As to `CCOc1ccc(NC(=O)Cn2c(Nc3ccc(OCC)cc3)nc3c2c(=O)[nH]c(=O)n3C)cc1`, the survival was inactive: 78%.

`COc1ccc(NC(=O)c2ccccc2NC(=O)c2ccco2)cc1`: the survival was inactive: 74%.

On to `O=C(c1ccco1)N(Cc1cccnc1)c1nc2ccc(F)cc2s1`, for which the survival is inactive: 115%.

In the case of `CCc1ccc(C2C(C(=O)Nc3ccccc3)=C(C)Nc3c(C(=O)Nc4ccc(C)cc4)cnn32)cc1` (stereo not drawn), the survival is active: 17%.

On to `COc1cc(OC)cc(-c2nc3n(n2)C(c2ccccc2F)C(C(=O)Nc2cccnc2)=C(C)N3)c1` (stereo not drawn), for which the survival was active: 45%.

As for `Cc1ccc(S(=O)(=O)NCC(c2ccc(N(C)C)cc2)N2CCCC2)cc1` (stereo not drawn), the survival was inactive: 98%.

Turning to `CCc1ccc(S(=O)(=O)c2cn(C)c3cc(N4CCCCC4C)c(F)cc3c2=O)cc1` (stereo not drawn), the survival is inactive: 99%.

For `Cc1cc(C)cc(NC(=O)C2CCCN(c3nnc(C)c4c(C)n(-c5ccccc5)nc34)C2)c1` (stereo not drawn), the survival was inactive: 96%.

Take `CCOC(=O)Cn1c(=O)oc2cc(S(=O)(=O)N3CCN(c4ccc(Cl)cc4)CC3)ccc21`: the survival was inactive: 59%.

Turning to `CCC(C)NC(=O)c1cc2c(Cl)nc3ccc(C)cc3c2s1` (stereo not drawn), the survival is inactive: 65%.

Take `CC(C)CNC(=O)c1cccc(Cl)c1`: the survival is inactive: 82%.

`Cc1ccc2c(c1)cc(C(=O)Nc1ccccc1C)n2C`: the survival is inactive: 78%.

Consider `CC1CCN(CC(=O)O)CC1`, for which the survival is inactive: 99%.

For `O=C(c1ccc(Cl)cc1)N1CCCC(c2nc(-c3ccc(Cl)cc3)no2)C1` (stereo not drawn), the survival was inactive: 87%.

Turning to `COc1cc(C2CC(=O)Nc3c2c(=O)[nH]c2nc4ccccc4n32)ccc1O` (stereo not drawn), the survival is inactive: 161%.

Turning to `COc1ccc(CCNCc2c(C(=O)O)c(C)n(Cc3ccccc3C)c2C)c(OC)c1`, the survival is inactive: 93%.

For `CCOc1ccccc1N(C)C(=O)Cn1cnc2sc(C)c(S(=O)(=O)N3CCC(C)CC3)c2c1=O`, the survival was inactive: 65%.

`Cc1ccc(Cn2nnc3c(=O)[nH]c(C4CCN(S(=O)(=O)/C=C/c5ccccc5)CC4)nc32)cc1`: the survival was inactive: 89%.

Take `COc1cc(OC)c(NC(=O)COCc2cc(-c3cccs3)on2)cc1Cl`: the survival was inactive: 71%.

Consider `COc1ccccc1N1CCN(C(=O)Cn2ncc3c(=O)oc4ccccc4c32)CC1`, for which the survival is inactive: 85%.

For the molecule `Cc1cccc(N2CCN(S(=O)(=O)c3ccc4c(c3)CCCN4C(=O)C3CCC3)CC2)c1C`, the survival was inactive: 68%.

As for `O=C(Nc1ccc(C(=O)OCc2cc(=O)n3nc(C4CC4)sc3n2)cc1)c1ccc(F)cc1`, the survival was inactive: 84%.

Take `Cc1nc(N2CCCC2)c2c(C(=O)Nc3cccc(C)c3C)c(C)oc2n1`: the survival is inactive: 92%.

Take `CC(=O)Nc1cccc(NC(=O)Cn2cnc3c2c(=O)n(C)c(=O)n3C)c1`: the survival is inactive: 70%.

In the case of `O=C(Nc1cccc(Cl)c1)c1c(NC(=O)C(F)(F)F)sc2c1CCCC2`, the survival is active: -2%.

In the case of `CCN(CC)c1ccc(NC(=O)C(Cc2ccccc2)NS(=O)(=O)c2ccc(Br)s2)c(C)c1` (stereo not drawn), the survival is inactive: 117%.

Regarding `COc1cccc(NC(=O)Nc2cc(-c3cn4cccnc4n3)ccc2C)c1`, the survival was inactive: 85%.

`CCC(Sc1nnc(C)n2c1cc1occc12)C(=O)Nc1ccccc1F` (stereo not drawn): the survival was inactive: 96%.

With `O=C(NCCO)C(=O)Nc1c2c(nn1-c1ccc(F)cc1)CSC2`, the survival was inactive: 82%.

Consider `CN(C)S(=O)(=O)Nc1ccc(Cc2ccncc2)cc1`, for which the survival is inactive: 100%.

As for `N#Cc1cn(CCOc2ccccc2F)c2ccccc12`, the survival was inactive: 82%.

With `COc1ccccc1CCNC(=O)CCc1c(C)c2cc3c(C)coc3c(C)c2oc1=O`, the survival was inactive: 75%.

As for `CN(C)CCN(Cc1ccco1)S(=O)(=O)c1cc2c(cc1Cl)NC(=O)CO2`, the survival was inactive: 57%.

With `O=C(Cn1c(=O)n(Cc2ccco2)c(=O)c2oc3ccccc3c21)Nc1ccc(F)cc1F`, the survival is inactive: 75%.

`COc1ccccc1-c1noc(-c2ccc(N3CCN(c4ccccc4)CC3)c([N+](=O)[O-])c2)n1`: the survival is active: 44%.

With `COc1ccc(N2CCN(c3cc(C)nc4nc(-c5ccc(C)cc5)nn34)CC2)cc1`, the survival is inactive: 53%.

Turning to `CC1=C(C#N)C(NC(=O)c2cccc(Cl)c2)(C(F)(F)F)C(=O)N1` (stereo not drawn), the survival is inactive: 65%.

For `Cc1ccc(S(=O)(=O)NCC2COc3ccccc3O2)cc1` (stereo not drawn), the survival is inactive: 85%.

For the molecule `Cc1ccc(Cl)cc1NC(=O)N1CCN(C)c2ncccc21`, the survival was inactive: 88%.

As for `Cc1cccc(C(=O)N2CCc3cc(CNC(=O)CCc4ccccc4)ccc32)c1`, the survival is inactive: 60%.

In the case of `CC(C)Oc1ccc(CNC(=O)C2CCN(C(=O)c3sccc3-n3cccc3)CC2)cc1`, the survival is inactive: 62%.

For the molecule `Cc1ccc(-c2noc(CNC(=O)c3ccc(C(C)(C)C)cc3)n2)cc1`, the survival was inactive: 79%.

Turning to `COC(=O)c1cc2oc3ccccc3c2n1CC(=O)Nc1ccc(OC)c(OC)c1OC`, the survival is inactive: 69%.

For the molecule `COc1ccccc1CNC(=O)CN1C(=O)CSc2ccc(S(=O)(=O)N3CCCC3)cc21`, the survival was inactive: 94%.

For the molecule `Cc1ccc2[nH]c(=O)c(CN(Cc3ccccc3)C(=O)N(C)C)cc2c1`, the survival was inactive: 91%.

Turning to `CC(C)OCCCN(Cc1ccco1)C(=O)c1cc2c(s1)-c1ccccc1OC2`, the survival is active: -5%.

Take `COCc1cc(C)n(CC(=O)Nc2ccc(NC(C)=O)cc2)c(=O)c1C#N`: the survival was inactive: 87%.

As to `CCN(CC)C(=O)Cn1cc(SCC(=O)Nc2cccc(C)c2)c2ccccc21`, the survival is inactive: 69%.

For `Cc1ccc(NCc2cccn2-c2nnc(N3CCC(C(=O)NCc4ccc(OC(C)C)cc4)CC3)s2)cc1`, the survival was inactive: 69%.

As to `CCC1(C(=O)OC)NC(c2ccc(OC)cc2)C2C(=O)N(C)C(=O)C21` (stereo not drawn), the survival was inactive: 94%.
